The other results are listed elsewhere or left out. Sequences were assembled here from the parent chain. Values near 0.05 are background.

The chains are these.
B1: TEV protease; numbered along this chain (parent)
chain: MGESLFKGPRDYNPISSSICHLTNESDGHTTSLYGIGFGPFIITNKHLFRRNNGTLVVQSLHGVFKVKDTTTLQQHLVDGRDMIIIRMPKDFPPFPQKLKFREPQREERICLVTTNFQTKSMSSMVSDTSCTFPSGDGIFWKHWIQTKDGQCGSPLVSTRDGFIVGIHSASNFTNTNNYFTSVPKNFMELLTNQEAQQWVSGWRLNADSVLWGGHKVFMVKPEEPFQPVKEATQL

The variants in this test derive from B1. Kind of test: raw area under fraction-flipped curve 0-4 h after induction (AUC4h, not background-subtracted), DNA-recorder readout of cleavage of the substrate (dimensionless); higher = more cleavage of the substrate by the protease variant. The note with it: temperature: 34 °C; time window: 0-4 h after rhamnose induction. How it is done:
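In vivo DNA recorder in E. coli TOP10(DE3) ΔrhaA at 34 °C. Each TEVp single-site mutant (parent TEVp 0) is paired with a single-site variant of the 7-mer TEVs (canonical ENLYFQ|S). The substrate sits between flexible linkers in a Bxb1-sfGFP-TEVs-SsrA fusion, so cleavage stabilises Bxb1 and speeds flipping of a recombination array, read by NGS. The value is the raw area under the fraction-flipped curve over 0-4 h after rhamnose induction (AUC4h), with ≥20 reads per time point. It is not background-subtracted; inactive controls average about 0.047.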
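Note: Bxb1 expression induced with 0.2% (w/v) L-rhamnose at OD600 near 0.5, cultures sampled hourly, flipped fraction per protease–substrate barcode pair counted by paired-end Illumina sequencing.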

With MGEQLFKGPRDYNPISSSICHLTNESDGHTTSLYGIGFGPFIITNKHLFRRNNGTLVVQSLHGVFKVKDTTTLQQHLVDGRDMIIIRMPKDFPPFPQKLKFREPQREERICLVTTNFQTKSMSSMVSDTSCTFPSGDGIFWKHWIQTKDGQCGSPLVSTRDGFIVGIHSASNFTNTNNYFTSVPKNFMELLTNQEAQQWVSGWRLNADSVLWGGHKVFMVKPEEPFQPVKEATQL [S4Q], the “area with substrate ENLCFQS” value came to 0.071, the “area with substrate ENLEFQS” value is 0.0586, the “area with substrate ENLHFQS” value came to 0.0668 and the “area with substrate ENLKFQS” value was determined as 0.0909. Moreover, the “area with substrate ENLMFQS” value amounted to 0.0793, the “area with substrate ENLPFQS” value worked out at 0.0593, the “area with substrate ENLQFQS” value was 0.0736 and the “area with substrate ENLSFQS” value was 0.0541. In addition, the “area with substrate ENLTFQS” value came to 0.0595.

MGTSLFKGPRDYNPISSSICHLTNESDGHTTSLYGIGFGPFIITNKHLFRRNNGTLVVQSLHGVFKVKDTTTLQQHLVDGRDMIIIRMPKDFPPFPQKLKFREPQREERICLVTTNFQTKSMSSMVSDTSCTFPSGDGIFWKHWIQTKDGQCGSPLVSTRDGFIVGIHSASNFTNTNNYFTSVPKNFMELLTNQEAQQWVSGWRLNADSVLWGGHKVFMVKPEEPFQPVKEATQL [E3T]: the “area with substrate ENLCFQS” value stood at 0.0949, the “area with substrate ENLGFQS” value amounted to 0.0546, the “area with substrate ENLHFQS” value is 0.0778 and the “area with substrate ENLVFQS” value was 0.0952. Besides, the “area with substrate ENLWFQS” value came out at 0.0684.

Take MLESLFKGPRDYNPISSSICHLTNESDGHTTSLYGIGFGPFIITNKHLFRRNNGTLVVQSLHGVFKVKDTTTLQQHLVDGRDMIIIRMPKDFPPFPQKLKFREPQREERICLVTTNFQTKSMSSMVSDTSCTFPSGDGIFWKHWIQTKDGQCGSPLVSTRDGFIVGIHSASNFTNTNNYFTSVPKNFMELLTNQEAQQWVSGWRLNADSVLWGGHKVFMVKPEEPFQPVKEATQL [G2L]: the “area with substrate ENLCFQS” value turned out to be 0.0796, the “area with substrate ENLDFQS” value came to 0.0587, the “area with substrate ENLFFQS” value came out at 0.0868 and the “area with substrate ENLKFQS” value stood at 0.0647. Besides, the “area with substrate ENLNFQS” value was 0.0707, the “area with substrate ENLRFQS” value was found to be 0.0958 and the “area with substrate ENLSFQS” value was found to be 0.0732.

For the variant MCESLFKGPRDYNPISSSICHLTNESDGHTTSLYGIGFGPFIITNKHLFRRNNGTLVVQSLHGVFKVKDTTTLQQHLVDGRDMIIIRMPKDFPPFPQKLKFREPQREERICLVTTNFQTKSMSSMVSDTSCTFPSGDGIFWKHWIQTKDGQCGSPLVSTRDGFIVGIHSASNFTNTNNYFTSVPKNFMELLTNQEAQQWVSGWRLNADSVLWGGHKVFMVKPEEPFQPVKEATQL [G2C], the “area with substrate ENLCFQS” value came to 0.0837.

MGESLFKGPRDYNPISISICHLTNESDGHTTSLYGIGFGPFIITNKHLFRRNNGTLVVQSLHGVFKVKDTTTLQQHLVDGRDMIIIRMPKDFPPFPQKLKFREPQREERICLVTTNFQTKSMSSMVSDTSCTFPSGDGIFWKHWIQTKDGQCGSPLVSTRDGFIVGIHSASNFTNTNNYFTSVPKNFMELLTNQEAQQWVSGWRLNADSVLWGGHKVFMVKPEEPFQPVKEATQL [S17I]: the “area with substrate ENLCFQS” value came to 0.0664, the “area with substrate ENLDFQS” value was determined as 0.0724, the “area with substrate ENLFFQS” value was 0.105 and the “area with substrate ENLHFQS” value is 0.067. In addition, the “area with substrate ENLIFQS” value was 0.0739, the “area with substrate ENLKFQS” value turned out to be 0.0753, the “area with substrate ENLPFQS” value was found to be 0.0567 and the “area with substrate ENLSFQS” value was 0.0547.

Consider MGESLFKGPRDYNPISSSICHLTNESMGHTTSLYGIGFGPFIITNKHLFRRNNGTLVVQSLHGVFKVKDTTTLQQHLVDGRDMIIIRMPKDFPPFPQKLKFREPQREERICLVTTNFQTKSMSSMVSDTSCTFPSGDGIFWKHWIQTKDGQCGSPLVSTRDGFIVGIHSASNFTNTNNYFTSVPKNFMELLTNQEAQQWVSGWRLNADSVLWGGHKVFMVKPEEPFQPVKEATQL [D27M], for which the “area with substrate ENLCFQS” value came out at 0.0692, the “area with substrate ENLDFQS” value amounted to 0.0552, the “area with substrate ENLEFQS” value came to 0.0698 and the “area with substrate ENLFFQS” value was 0.0611. For the same variant, the “area with substrate ENLGFQS” value was 0.0574, the “area with substrate ENLHFQS” value turned out to be 0.0599, the “area with substrate ENLKFQS” value was 0.0801 and the “area with substrate ENLLFQS” value is 0.0737. Further, the “area with substrate ENLNFQS” value was 0.0572, the “area with substrate ENLPFQS” value worked out at 0.0529, the “area with substrate ENLQFQS” value was determined as 0.0646 and the “area with substrate ENLRFQS” value was determined as 0.0679. Further, the “area with substrate ENLSFQS” value was 0.0584 and the “area with substrate ENLWFQS” value came out at 0.0655.

Regarding MGESLFKGPRDYNPISSSICHLTNESDGHTTSLYGKGFGPFIITNKHLFRRNNGTLVVQSLHGVFKVKDTTTLQQHLVDGRDMIIIRMPKDFPPFPQKLKFREPQREERICLVTTNFQTKSMSSMVSDTSCTFPSGDGIFWKHWIQTKDGQCGSPLVSTRDGFIVGIHSASNFTNTNNYFTSVPKNFMELLTNQEAQQWVSGWRLNADSVLWGGHKVFMVKPEEPFQPVKEATQL [I36K], the “area with substrate ENLCFQS” value came to 0.0411, the “area with substrate ENLFFQS” value was found to be 0.0432, the “area with substrate ENLGFQS” value stood at 0.0509 and the “area with substrate ENLHFQS” value turned out to be 0.0478. In addition, the “area with substrate ENLKFQS” value stood at 0.0284, the “area with substrate ENLMFQS” value came out at 0.0734, the “area with substrate ENLNFQS” value is 0.0381 and the “area with substrate ENLPFQS” value was 0.0318. The “area with substrate ENLSFQS” value was 0.0386 and the “area with substrate ENLVFQS” value came out at 0.0385.

With MGESLFKGPRDYNPISSSICHLTNESDGHTTSLYGIGFGPFIITNKQLFRRNNGTLVVQSLHGVFKVKDTTTLQQHLVDGRDMIIIRMPKDFPPFPQKLKFREPQREERICLVTTNFQTKSMSSMVSDTSCTFPSGDGIFWKHWIQTKDGQCGSPLVSTRDGFIVGIHSASNFTNTNNYFTSVPKNFMELLTNQEAQQWVSGWRLNADSVLWGGHKVFMVKPEEPFQPVKEATQL [H47Q], the “area with substrate ENLCFQS” value turned out to be 0.0668, the “area with substrate ENLDFQS” value worked out at 0.0539, the “area with substrate ENLEFQS” value turned out to be 0.053 and the “area with substrate ENLFFQS” value came out at 0.0649. Besides, the “area with substrate ENLGFQS” value worked out at 0.0875, the “area with substrate ENLHFQS” value was determined as 0.0643, the “area with substrate ENLKFQS” value worked out at 0.0694 and the “area with substrate ENLMFQS” value is 0.0548. For the same variant, the “area with substrate ENLNFQS” value was found to be 0.0643, the “area with substrate ENLPFQS” value turned out to be 0.0801, the “area with substrate ENLQFQS” value was found to be 0.0622 and the “area with substrate ENLRFQS” value is 0.058. Also, the “area with substrate ENLVFQS” value is 0.0738.

Consider MGESLFKGPRDYNPISSSICHLTNESDGHETSLYGIGFGPFIITNKHLFRRNNGTLVVQSLHGVFKVKDTTTLQQHLVDGRDMIIIRMPKDFPPFPQKLKFREPQREERICLVTTNFQTKSMSSMVSDTSCTFPSGDGIFWKHWIQTKDGQCGSPLVSTRDGFIVGIHSASNFTNTNNYFTSVPKNFMELLTNQEAQQWVSGWRLNADSVLWGGHKVFMVKPEEPFQPVKEATQL [T30E], for which the “area with substrate ENLCFQS” value amounted to 0.0736, the “area with substrate ENLEFQS” value came to 0.0595, the “area with substrate ENLFFQS” value was found to be 0.0849 and the “area with substrate ENLHFQS” value amounted to 0.0696. The “area with substrate ENLIFQS” value is 0.0768, the “area with substrate ENLKFQS” value stood at 0.062, the “area with substrate ENLMFQS” value is 0.068 and the “area with substrate ENLNFQS” value is 0.0703. Besides, the “area with substrate ENLPFQS” value was 0.0577, the “area with substrate ENLQFQS” value amounted to 0.0752, the “area with substrate ENLRFQS” value worked out at 0.0649 and the “area with substrate ENLVFQS” value turned out to be 0.0623.

Turning to MGESLFKGPRDYNPISSSICHLTNESDGHITSLYGIGFGPFIITNKHLFRRNNGTLVVQSLHGVFKVKDTTTLQQHLVDGRDMIIIRMPKDFPPFPQKLKFREPQREERICLVTTNFQTKSMSSMVSDTSCTFPSGDGIFWKHWIQTKDGQCGSPLVSTRDGFIVGIHSASNFTNTNNYFTSVPKNFMELLTNQEAQQWVSGWRLNADSVLWGGHKVFMVKPEEPFQPVKEATQL [T30I], the “area with substrate ENLCFQS” value is 0.0607, the “area with substrate ENLDFQS” value came out at 0.0494, the “area with substrate ENLEFQS” value is 0.0726 and the “area with substrate ENLFFQS” value was found to be 0.0847. For the same variant, the “area with substrate ENLGFQS” value stood at 0.0726, the “area with substrate ENLIFQS” value was found to be 0.0712, the “area with substrate ENLKFQS” value was found to be 0.0784 and the “area with substrate ENLNFQS” value amounted to 0.0627. Further, the “area with substrate ENLPFQS” value is 0.0559, the “area with substrate ENLQFQS” value worked out at 0.0677, the “area with substrate ENLRFQS” value worked out at 0.0845 and the “area with substrate ENLSFQS” value stood at 0.0472. In addition, the “area with substrate ENLTFQS” value stood at 0.0577 and the “area with substrate ENLWFQS” value was 0.0626.

For the origin of these results see the supplement of paper PMC12217912.
